Measurements published in paper PMC12820563.
This is one part of the list. The list includes weakly bound sequences.

These sequences were tested against T1, MBP-FoxP3dN (UniProt Q99JB6) (assay: PD-seq (MBP pull-down with sequencing)). Conditions: 20 mM Tris-HCl pH 7.5, 100 mM NaCl, 1.5 mM MgCl2, 0.4 uM protein, 0.1 uM dsDNA library, 30 min, room temperature, amylose pull-down; high values mean tight binding; double strand, one strand shown.
T1 sequence: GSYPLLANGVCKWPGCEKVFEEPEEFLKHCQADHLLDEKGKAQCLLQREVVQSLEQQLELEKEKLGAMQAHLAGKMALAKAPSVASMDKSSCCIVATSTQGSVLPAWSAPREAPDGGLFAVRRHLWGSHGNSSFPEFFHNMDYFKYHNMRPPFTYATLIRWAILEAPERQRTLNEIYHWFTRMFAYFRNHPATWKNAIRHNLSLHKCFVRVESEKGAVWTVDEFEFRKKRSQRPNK

| Sequence | binding signal (RPM ratio (pull-down/input)) |
| --- | --- |
| GATGATTGTTCTCCCAGCTGATGAATTTCGAGCATCGAGTAAACAAATTTTCCTAATCTTTCTGTTCAAGCGCCATCTAC | 0.806 |
| GATGATTGTTCTCCCAGCTGATGAATTAGTTCTATCGAGTAAACAAATTTTCCTAATCTTTCTGTTCAAGCGCCATCTAC | 0.416 |
| GATGATTGTTCTCCCAGCTGATGAATTCATCATCTCGAGTAAACAAATTTTCCTAATCTTTCTGTTCAAGCGCCATCTAC | 1.24 |
| GATGATTGTTCTCCCAGCTGATGAATTGAGGGCGTCGAGTAAACAAATTTTCCTAATCTTTCTGTTCAAGCGCCATCTAC | 0.482 |
| GATGATTGTTCTCCCAGCTGATGAATTTCAATTCTCGAGTAAACAAATTTTCCTAATCTTTCTGTTCAAGCGCCATCTAC | 0.544 |
| GATGATTGTTCTCCCAGCTGATGAATTTGGTCTTTCGAGTAAACAAATTTTCCTAATCTTTCTGTTCAAGCGCCATCTAC | 0.63 |
| GATGATTGTTCTCCCAGCTGATGAATTTCACAACTCGAGTAAACAAATTTTCCTAATCTTTCTGTTCAAGCGCCATCTAC | 0.373 |
| GATGATTGTTCTCCCAGCTGATGAATTAAATTTCTCGAGTAAACAAATTTTCCTAATCTTTCTGTTCAAGCGCCATCTAC | 0.664 |
| GATGATTGTTCTCCCAGCTGATGAATTGTACGTATCGAGTAAACAAATTTTCCTAATCTTTCTGTTCAAGCGCCATCTAC | 0.769 |
| GATGATTGTTCTCCCAGCTGATGAATTGCATTAATCGAGTAAACAAATTTTCCTAATCTTTCTGTTCAAGCGCCATCTAC | 1.69 |
| GATGATTGTTCTCCCAGCTGATGAATTTCTGGTTTCGAGTAAACAAATTTTCCTAATCTTTCTGTTCAAGCGCCATCTAC | 0.411 |
| GATGATTGTTCTCCCAGCTGATGAATTGCATCTTTCGAGTAAACAAATTTTCCTAATCTTTCTGTTCAAGCGCCATCTAC | 5.4 |
| GATGATTGTTCTCCCAGCTGATGAATTAAACACATCGAGTAAACAAATTTTCCTAATCTTTCTGTTCAAGCGCCATCTAC | 0.785 |
| GATGATTGTTCTCCCAGCTGATGAATTAATGAACTCGAGTAAACAAATTTTCCTAATCTTTCTGTTCAAGCGCCATCTAC | 0.287 |
| GATGATTGTTCTCCCAGCTGATGAATTGACCACTTCGAGTAAACAAATTTTCCTAATCTTTCTGTTCAAGCGCCATCTAC | 0.403 |
| GATGATTGTTCTCCCAGCTGATGAATTGAGATTGTCGAGTAAACAAATTTTCCTAATCTTTCTGTTCAAGCGCCATCTAC | 1.08 |
| GATGATTGTTCTCCCAGCTGATGAATTGCATTCATCGAGTAAACAAATTTTCCTAATCTTTCTGTTCAAGCGCCATCTAC | 4.9 |
| GATGATTGTTCTCCCAGCTGATGAATTTCTGATGTCGAGTAAACAAATTTTCCTAATCTTTCTGTTCAAGCGCCATCTAC | 0.407 |
| GATGATTGTTCTCCCAGCTGATGAATTACGGTTTTCGAGTAAACAAATTTTCCTAATCTTTCTGTTCAAGCGCCATCTAC | 0.844 |
| GATGATTGTTCTCCCAGCTGATGAATTCGATGGTTCGAGTAAACAAATTTTCCTAATCTTTCTGTTCAAGCGCCATCTAC | 2.35 |
| GATGATTGTTCTCCCAGCTGATGAATTCTAGCCTTCGAGTAAACAAATTTTCCTAATCTTTCTGTTCAAGCGCCATCTAC | 1.89 |

| Sequence | binding signal (RPM ratio (pull-down/input)) |
| --- | --- |
| GATGATTGTTCTCCCAGCTGATGAATTTAACAAATCGAGTAAACAAATTTTCCTAATCTTTCTGTTCAAGCGCCATCTAC | 0.242 |
| GATGATTGTTCTCCCAGCTGATGAATTGCGAGGGTCGAGTAAACAAATTTTCCTAATCTTTCTGTTCAAGCGCCATCTAC | 0.611 |
| GATGATTGTTCTCCCAGCTGATGAATTGGGAAAATCGAGTAAACAAATTTTCCTAATCTTTCTGTTCAAGCGCCATCTAC | 0.17 |
| GATGATTGTTCTCCCAGCTGATGAATTCTGCCCCTCGAGTAAACAAATTTTCCTAATCTTTCTGTTCAAGCGCCATCTAC | 1.72 |
| GATGATTGTTCTCCCAGCTGATGAATTACGAGGATCGAGTAAACAAATTTTCCTAATCTTTCTGTTCAAGCGCCATCTAC | 0.276 |
| GATGATTGTTCTCCCAGCTGATGAATTCGCGAACTCGAGTAAACAAATTTTCCTAATCTTTCTGTTCAAGCGCCATCTAC | 0.241 |
| GATGATTGTTCTCCCAGCTGATGAATTGTTATTCTCGAGTAAACAAATTTTCCTAATCTTTCTGTTCAAGCGCCATCTAC | 5.18 |
| GATGATTGTTCTCCCAGCTGATGAATTAAGCGCATCGAGTAAACAAATTTTCCTAATCTTTCTGTTCAAGCGCCATCTAC | 1.44 |
| GATGATTGTTCTCCCAGCTGATGAATTAGGGGTATCGAGTAAACAAATTTTCCTAATCTTTCTGTTCAAGCGCCATCTAC | 0.773 |
| GATGATTGTTCTCCCAGCTGATGAATTTCGGATCTCGAGTAAACAAATTTTCCTAATCTTTCTGTTCAAGCGCCATCTAC | 0.293 |
| GATGATTGTTCTCCCAGCTGATGAATTATAGTCATCGAGTAAACAAATTTTCCTAATCTTTCTGTTCAAGCGCCATCTAC | 0.621 |
| GATGATTGTTCTCCCAGCTGATGAATTGGGCGCGTCGAGTAAACAAATTTTCCTAATCTTTCTGTTCAAGCGCCATCTAC | 1.23 |
| GATGATTGTTCTCCCAGCTGATGAATTAATAAGATCGAGTAAACAAATTTTCCTAATCTTTCTGTTCAAGCGCCATCTAC | 0.21 |
| GATGATTGTTCTCCCAGCTGATGAATTAAATGCTTCGAGTAAACAAATTTTCCTAATCTTTCTGTTCAAGCGCCATCTAC | 1.2 |
| GATGATTGTTCTCCCAGCTGATGAATTCTAATGATCGAGTAAACAAATTTTCCTAATCTTTCTGTTCAAGCGCCATCTAC | 0.643 |
| GATGATTGTTCTCCCAGCTGATGAATTCTACCGTTCGAGTAAACAAATTTTCCTAATCTTTCTGTTCAAGCGCCATCTAC | 0.37 |
| GATGATTGTTCTCCCAGCTGATGAATTATATATCTCGAGTAAACAAATTTTCCTAATCTTTCTGTTCAAGCGCCATCTAC | 0.993 |
| GATGATTGTTCTCCCAGCTGATGAATTTAAAGTTTCGAGTAAACAAATTTTCCTAATCTTTCTGTTCAAGCGCCATCTAC | 0.312 |
| GATGATTGTTCTCCCAGCTGATGAATTTAGGAAGTCGAGTAAACAAATTTTCCTAATCTTTCTGTTCAAGCGCCATCTAC | 0.234 |
| GATGATTGTTCTCCCAGCTGATGAATTAAACTGCTCGAGTAAACAAATTTTCCTAATCTTTCTGTTCAAGCGCCATCTAC | 0.298 |
| GATGATTGTTCTCCCAGCTGATGAATTGATAGTATCGAGTAAACAAATTTTCCTAATCTTTCTGTTCAAGCGCCATCTAC | 1.06 |

| Sequence | binding signal (RPM ratio (pull-down/input)) |
| --- | --- |
| GATGATTGTTCTCCCAGCTGATGAATTTTCCCGGTCGAGTAAACAAATTTTCCTAATCTTTCTGTTCAAGCGCCATCTAC | 0.13 |
| GATGATTGTTCTCCCAGCTGATGAATTTAGGGAATCGAGTAAACAAATTTTCCTAATCTTTCTGTTCAAGCGCCATCTAC | 0.316 |
| GATGATTGTTCTCCCAGCTGATGAATTTCGTCGTTCGAGTAAACAAATTTTCCTAATCTTTCTGTTCAAGCGCCATCTAC | 0.9 |
| GATGATTGTTCTCCCAGCTGATGAATTTAGAAACTCGAGTAAACAAATTTTCCTAATCTTTCTGTTCAAGCGCCATCTAC | 0.679 |
| GATGATTGTTCTCCCAGCTGATGAATTGGGGGTCTCGAGTAAACAAATTTTCCTAATCTTTCTGTTCAAGCGCCATCTAC | 0.826 |
| GATGATTGTTCTCCCAGCTGATGAATTTTCCAGTTCGAGTAAACAAATTTTCCTAATCTTTCTGTTCAAGCGCCATCTAC | 0.212 |
| GATGATTGTTCTCCCAGCTGATGAATTAGGCGCATCGAGTAAACAAATTTTCCTAATCTTTCTGTTCAAGCGCCATCTAC | 1.59 |
| GATGATTGTTCTCCCAGCTGATGAATTTAAGCACTCGAGTAAACAAATTTTCCTAATCTTTCTGTTCAAGCGCCATCTAC | 0.518 |
| GATGATTGTTCTCCCAGCTGATGAATTTACATCATCGAGTAAACAAATTTTCCTAATCTTTCTGTTCAAGCGCCATCTAC | 0.953 |
| GATGATTGTTCTCCCAGCTGATGAATTCTAAACATCGAGTAAACAAATTTTCCTAATCTTTCTGTTCAAGCGCCATCTAC | 1.61 |
| GATGATTGTTCTCCCAGCTGATGAATTGACTCTCTCGAGTAAACAAATTTTCCTAATCTTTCTGTTCAAGCGCCATCTAC | 0.425 |
| GATGATTGTTCTCCCAGCTGATGAATTCTTATGGTCGAGTAAACAAATTTTCCTAATCTTTCTGTTCAAGCGCCATCTAC | 0.32 |
| GATGATTGTTCTCCCAGCTGATGAATTAATTTGTTCGAGTAAACAAATTTTCCTAATCTTTCTGTTCAAGCGCCATCTAC | 3.91 |
| GATGATTGTTCTCCCAGCTGATGAATTGCCGAGGTCGAGTAAACAAATTTTCCTAATCTTTCTGTTCAAGCGCCATCTAC | 0.34 |
| GATGATTGTTCTCCCAGCTGATGAATTGATGGCATCGAGTAAACAAATTTTCCTAATCTTTCTGTTCAAGCGCCATCTAC | 1.16 |
| GATGATTGTTCTCCCAGCTGATGAATTGGGCCTATCGAGTAAACAAATTTTCCTAATCTTTCTGTTCAAGCGCCATCTAC | 1.58 |
| GATGATTGTTCTCCCAGCTGATGAATTGTATACTTCGAGTAAACAAATTTTCCTAATCTTTCTGTTCAAGCGCCATCTAC | 3.98 |
| GATGATTGTTCTCCCAGCTGATGAATTAACCGATTCGAGTAAACAAATTTTCCTAATCTTTCTGTTCAAGCGCCATCTAC | 0.251 |
| GATGATTGTTCTCCCAGCTGATGAATTTGAATCTTCGAGTAAACAAATTTTCCTAATCTTTCTGTTCAAGCGCCATCTAC | 0.603 |
| GATGATTGTTCTCCCAGCTGATGAATTGCTGATATCGAGTAAACAAATTTTCCTAATCTTTCTGTTCAAGCGCCATCTAC | 0.862 |
| GATGATTGTTCTCCCAGCTGATGAATTTATAACTTCGAGTAAACAAATTTTCCTAATCTTTCTGTTCAAGCGCCATCTAC | 0.47 |
